# Assay results published in the supplement of paper PMC8728848.
# The other results are listed elsewhere or left out.
# B1: CFEM-PPl (Pichia pastoris), F2QPV1 (protein)
# chain: AVATPPACLLACAAEVVKESSDCDALNNIQCICENEGSAIHACLESTCPDGLSSTALQSFEDVCESVGTEANLDE
# Columns and labels:
# Assay in all cases: glycan array binding signal (z-score within array); higher = stronger binding
# Settings in all cases: glycan notation: IUPAC condensed, linker removed
# [1] = target: GlcNAc(b1-3)GalNAc
# Summary of the method: (§1)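 The Consortium for Functional Glycomics database supplied 3228 glycan arrays, of which those lacking an available protein sequence were dropped. The binding signal, a within-array Z-score, was averaged across arrays of the same protein sequence and across linkers. Negative scores can be read as non-binding.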
# [2] = target: GlcNAc(b1-3)Man
# Summary of the method: as §1
# [3] = target: GlcNAc(b1-3)[GlcNAc(b1-4)][GlcNAc(b1-6)]GlcNAc
# Summary of the method: as §1
# [4] = target: GlcNAc(b1-3)[GlcNAc(b1-6)]Gal(b1-4)GlcNAc
# Summary of the method: as §1
# [5] = target: GlcNAc(b1-3)[GlcNAc(b1-6)]GalNAc
# Summary of the method: as §1
# [6] = target: GlcNAc(b1-4)Gal(b1-4)GlcNAc
# Summary of the method: as §1
# [7] = target: GlcNAc(b1-4)GlcNAc
# Summary of the method: as §1
# [8] = target: GlcNAc(b1-4)GlcNAc(b1-4)GlcNAc
# Summary of the method: as §1
# [9] = target: GlcNAc(b1-4)GlcNAc(b1-4)GlcNAc(b1-4)GlcNAc(b1-4)GlcNAc
# Summary of the method: as §1
# [10] = target: GlcNAc(b1-4)GlcNAc(b1-4)GlcNAc(b1-4)GlcNAc(b1-4)GlcNAc(b1-4)GlcNAc
# Summary of the method: as §1
# [11] = target: GlcNAc(b1-4)[GlcNAc(b1-6)]GalNAc
# Summary of the method: as §1
# [12] = target: GlcNAc(b1-6)Gal(b1-4)GlcNAc
# Summary of the method: as §1
# [13] = target: GlcNAc(b1-6)GalNAc
# Summary of the method: as §1
# [14] = target: GlcNAc6S(b1-3)Gal(b1-4)GlcNAc
# Summary of the method: as §1
# [15] = target: Kdn(a2-3)Gal(b1-3)GalNAc
# Summary of the method: as §1
# [16] = target: Kdn(a2-3)Gal(b1-3)GlcNAc
# Summary of the method: as §1
# [17] = target: Kdn(a2-3)Gal(b1-4)Glc
# Summary of the method: as §1
# [18] = target: Kdn(a2-3)Gal(b1-4)GlcNAc
# Summary of the method: as §1
# [19] = target: Kdn(a2-3)Gal(b1-4)[Fuc(a1-3)]GlcNAc
# Summary of the method: as §1
# [20] = target: Kdn(a2-6)Gal(b1-4)GlcNAc
# Summary of the method: as §1
# [21] = target: Man(a1-2)Man(a1-2)Man(a1-3)Man
# Summary of the method: as §1
# [22] = target: Man(a1-2)Man(a1-2)Man(a1-6)[Man(a1-3)]Man
# Summary of the method: as §1
# [23] = target: Man(a1-2)Man(a1-3)Man
# Summary of the method: as §1
binder,measurement,setting,value
B1,glycan array binding signal (z-score),[1],-0.314
same,glycan array binding signal (z-score),[2],-0.242
same,glycan array binding signal (z-score),[3],-0.262
same,glycan array binding signal (z-score),[4],-0.018
same,glycan array binding signal (z-score),[5],-0.359
same,glycan array binding signal (z-score),[6],-0.288
same,glycan array binding signal (z-score),[7],-0.153
same,glycan array binding signal (z-score),[8],-0.291
same,glycan array binding signal (z-score),[9],-0.172
same,glycan array binding signal (z-score),[10],-0.086
same,glycan array binding signal (z-score),[11],-0.176
same,glycan array binding signal (z-score),[12],-0.019
same,glycan array binding signal (z-score),[13],-0.364
same,glycan array binding signal (z-score),[14],0.299
same,glycan array binding signal (z-score),[15],-0.307
same,glycan array binding signal (z-score),[16],-0.02
same,glycan array binding signal (z-score),[17],-0.334
same,glycan array binding signal (z-score),[18],-0.087
same,glycan array binding signal (z-score),[19],-0.19
same,glycan array binding signal (z-score),[20],-0.231
same,glycan array binding signal (z-score),[21],0.013
same,glycan array binding signal (z-score),[22],-0.294
same,glycan array binding signal (z-score),[23],-0.171
